According to PubChem BioAssay AID2528 (National Center for Advancing Translational Sciences (NCATS), 2010):
Values joined by “and” are separate entries in the source; they are usually repeats but may differ in a detail not shown here. Identical values can stand only once. In all, about 350,000 compounds went through this assay and about 700 (0.2%) were called active. Calls come from the whole dose curve; as a rule, active = well fitted inhibition curve with a large enough effect; inconclusive = small, poorly fitted or top-dose-only effect; inactive = flat fitted curve, though single readings scatter. The entries are a selection whose mix differs from that of the whole data set. Where a structure was tested more than once in an assay, its records may differ in their call. Numbered stars: 1 amine (or outer) side, 2 acyl side, 3 side chain; on linkers, the order of the positions; unused ones are H or OH. Bridge positions count the residues as written; N and C are the ends. Square brackets hold non-standard residues; d marks the D form. Peptide text beside a SMILES is read from it. I, II: the chains in the order shown. * marks the point of attachment. Actinocin(9to1) = Cc1c2oc3c(C)ccc(C(=O)[*:1])c3nc-2c(C(=O)[*:2])c(N)c1=O; Fmoc = O=C(OCC1c2ccccc2-c2ccccc21)*; AMC = Cc1cc(=O)oc2cc(N*)ccc12; Cha = N[CH](CC1CCCCC1)C(=O)O; NMeV = CN[C@H](C(=O)O)C(C)C; Sar = CNCC(=O)O
Note: nearly all actives have a fitted effect of over 35% in size.
Potency is the fitted concentration of half-maximal effect.
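Throughout, for activity change, negative = inhibition: plate controls were vehicle for no effect and no enzyme for full effect.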

Each compound was assayed against RecQ-like DNA helicase BLM (Homo sapiens) (UniProt P54132) (assay: qHTS Assay for Inhibitors of Bloom's syndrome helicase (BLM)). Conditions: recombinant BLM DNA unwinding, fluorescence dequenching; series mostly up to 56.1 µM; activity change, negative = inhibition: at the top concentration.
Chain of UniProt P54132 (P54132 whole entry, looked up): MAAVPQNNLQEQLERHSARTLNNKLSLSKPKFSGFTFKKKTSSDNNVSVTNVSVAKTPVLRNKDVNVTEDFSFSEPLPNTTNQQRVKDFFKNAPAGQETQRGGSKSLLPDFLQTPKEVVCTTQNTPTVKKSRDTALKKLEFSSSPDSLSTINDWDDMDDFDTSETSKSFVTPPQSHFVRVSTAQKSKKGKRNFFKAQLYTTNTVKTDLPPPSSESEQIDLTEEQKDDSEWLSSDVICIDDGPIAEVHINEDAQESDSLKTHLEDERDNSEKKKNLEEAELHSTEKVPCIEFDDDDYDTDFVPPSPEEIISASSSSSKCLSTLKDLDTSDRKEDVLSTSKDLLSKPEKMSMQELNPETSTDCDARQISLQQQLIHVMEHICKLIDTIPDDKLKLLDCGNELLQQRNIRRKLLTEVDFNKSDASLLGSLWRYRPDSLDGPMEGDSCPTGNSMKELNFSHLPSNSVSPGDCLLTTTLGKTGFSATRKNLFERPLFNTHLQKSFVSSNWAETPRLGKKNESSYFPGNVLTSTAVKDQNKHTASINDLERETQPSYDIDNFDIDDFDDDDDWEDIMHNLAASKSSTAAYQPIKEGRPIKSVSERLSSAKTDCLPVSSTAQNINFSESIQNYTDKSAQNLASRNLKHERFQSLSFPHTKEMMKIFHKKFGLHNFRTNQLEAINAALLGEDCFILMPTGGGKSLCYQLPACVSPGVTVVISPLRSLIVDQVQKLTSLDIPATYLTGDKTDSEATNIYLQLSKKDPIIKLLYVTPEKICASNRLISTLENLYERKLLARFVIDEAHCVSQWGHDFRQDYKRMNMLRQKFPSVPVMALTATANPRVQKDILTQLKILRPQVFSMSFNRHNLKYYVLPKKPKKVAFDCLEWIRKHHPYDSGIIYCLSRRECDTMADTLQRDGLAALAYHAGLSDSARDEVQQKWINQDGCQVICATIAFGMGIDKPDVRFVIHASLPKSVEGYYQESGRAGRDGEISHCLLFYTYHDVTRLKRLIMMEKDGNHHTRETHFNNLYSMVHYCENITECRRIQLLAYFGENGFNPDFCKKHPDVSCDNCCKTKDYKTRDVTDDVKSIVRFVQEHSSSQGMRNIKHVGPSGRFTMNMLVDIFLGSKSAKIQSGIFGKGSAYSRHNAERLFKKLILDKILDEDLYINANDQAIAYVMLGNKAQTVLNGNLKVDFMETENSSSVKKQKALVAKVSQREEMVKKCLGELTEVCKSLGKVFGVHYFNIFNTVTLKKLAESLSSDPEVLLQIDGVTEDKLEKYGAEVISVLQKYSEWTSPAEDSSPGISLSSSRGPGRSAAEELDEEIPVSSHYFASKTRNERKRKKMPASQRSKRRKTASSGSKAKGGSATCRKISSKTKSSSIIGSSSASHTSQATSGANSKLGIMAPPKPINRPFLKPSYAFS
In the case of O=C(O)c1ccccc1Nc1cccc(OCc2ccc3ccccc3n2)c1, the “activity change, negative = inhibition” value was inactive: -11.9%.
CCCCCn1c(N)c(-c2nc3ccccc3o2)c2c([N+](=O)[O-])nn(C)c(=O)c21 was tested, and the Potency was active: 15.8 µM.
In the case of CCCCCCCC/C=C\CCCCCCCC(=O)O, the “activity change, negative = inhibition” value was inactive: 0.957%.
For CN(c1ccccc1)c1ccc(/C=C(\CCC(=O)O)c2nc3ccccc3s2)cc1[N+](=O)[O-], the Potency was active: 22.4 µM.
With C#C[C@]1(O)CC[C@H]2[C@H]3CCC4=Cc5oncc5C[C@]4(C)[C@@H]3CC[C@]21C the “activity change, negative = inhibition” value was inactive: -2.41%.
With CCCC(CCC)C(=O)O the Potency was “inactive”.
In the case of CN(C)CCCC1(c2ccc(F)cc2)OCc2cc(C#N)ccc21 (stereo not drawn), the Potency was “inactive”.
With COC(=O)[C@H]1C(OC)[C@@H](OC(=O)c2cc(OC)c(OC)c(OC)c2)C[C@@H]2CN3CCc4c([nH]c5cc(OC)ccc45)[C@H]3C[C@H]21 (stereo partly drawn) the “activity change, negative = inhibition” value was inactive: -19.3%.
For CN(C)CCC(c1ccc(Cl)cc1)c1ccccn1 (stereo not drawn), the Potency was “inactive”.
With CC[C@H](C)N(C)C(=O)c1cc2ccccc2c(-c2ccccc2Cl)n1 the “activity change, negative = inhibition” value was inactive: -3.93%.
C[C@H](NC(=O)/C(C#N)=C/c1ccc(O)c(O)c1)c1ccccc1 was tested, and the “activity change, negative = inhibition” value was inactive: -14.5%.
For Cc1ccc(S(=O)(=O)/N=C2/C=C(Sc3ncn[nH]3)C(=O)c3ccccc32)cc1, the Potency was active: 15.8 µM.
With COc1cc(=O)n(C)c2c(OCC(O)C(C)(C)O)cccc12 (stereo not drawn) the “activity change, negative = inhibition” value was inactive: 1.12%.
CN1/C(=C\C=C2/SC(=S)N(CC(=O)O)C2=O)C(C)(C)c2ccccc21 was tested, and the Potency was active: 14.1 µM.
Cc1cn([C@H]2C[C@H](N=[N+]=[N-])[C@@H](CO)O2)c(=O)[nH]c1=O was tested, and the Potency was “inactive”.
With COc1ccc([C@@H]2Sc3ccccc3N(CCN(C)C)C(=O)[C@@H]2OC(C)=O)cc1 the Potency was “inactive”.
NS(=O)(=O)Cc1noc2ccccc12 was tested, and the Potency was “inactive”.
In the case of CCOC(=O)C1=C[C@@]2(CC)CCCN3CCc4c(n1c1ccccc41)[C@H]32, the Potency was “inactive”.
For C=CCN1CCc2c(cc(O)c(O)c2Cl)C(c2ccccc2)C1 (stereo not drawn), the “activity change, negative = inhibition” value was inactive: -4.77%.
For Cc1c(Cc2ccccc2)c(=O)oc2c(O)c(O)ccc12, the Potency was active: 12.6 µM.
In the case of CSc1nc(N)c2ncn([C@H]3O[C@H](COP(=O)(O)OP(=O)(O)OP(=O)(O)O)[C@@H](O)[C@@H]3O)c2n1, the “activity change, negative = inhibition” value was inactive: -3.16%.
In the case of NCCS, the Potency was “inactive”.
For COCCOC(=O)C1=C(C)NC(C)=C(C(=O)OC(C)C)C1c1cccc([N+](=O)[O-])c1 (stereo not drawn), the Potency was “inactive”.
With CN1C(C(=O)Nc2ccccn2)=C(O)c2ccccc2S1(=O)=O the Potency was “inactive”.
For COc1cccc(N2CCN(CC(=O)NC(=O)NCc3ccco3)CC2)c1, the Potency was active: 11.2 µM.
In the case of CCOC(=O)C1=C(C)NC(C)=C(C(=O)OC)[C@@H]1c1cccc([N+](=O)[O-])c1, the “activity change, negative = inhibition” value was inactive: -4.83% [at 21.4 µM].
In the case of O=c1[nH]c2cc(Cl)c(Cl)cc2[nH]c1=O, the “activity change, negative = inhibition” value was inactive: 0.939%.
For O=C1c2ccccc2-c2onc3ccc(NCCCn4ccnc4)c1c23, the Potency was active: 35.5 µM.
With COC(=O)c1ccc(=O)c2nc3/c(=C/O)c(O)cc(=O)c3[nH]c12 the Potency was active: 17.8 µM.
CCN(Cc1ccncc1)C(=O)[C@@H](CO)c1ccccc1 was tested, and the Potency was “inactive”.
In the case of O=C(O)c1cc([N+](=O)[O-])ccc1NCCCc1ccccc1, the Potency was “inactive”.
CCCC(=O)OCCNc1cc(SCc2ccco2)c2nonc2c1[N+](=O)[O-] was tested, and the Potency was active: 12.6 µM.
O=C1Nc2ccc(I)cc2/C1=C/c1cc(Br)c(O)c(Br)c1 was tested, and the “activity change, negative = inhibition” value was inactive: -14.1%.
For COc1cccc(C2/C(=C(\O)c3ccc4c(c3)OCCO4)C(=O)C(=O)N2CCN(C)C)c1 (stereo not drawn), the Potency was active: 8.91 µM.
With O=C(O)CCCC[C@@H]1CCSS1 the “activity change, negative = inhibition” value was inactive: 4.72%.
NC(=O)N1c2ccccc2CC(=O)c2ccccc21 was tested, and the Potency was “inactive”.
For Cc1c2cc(O)c(=O)cc-2oc2cc(O)c(O)cc12, the Potency was active: 14.1 µM.
For Cc1cc(=O)oc2cc(NC(=O)C(CCCCN)NC(=O)C(CC3CCCCC3)NC(=O)OCC3c4ccccc4-c4ccccc43)ccc12 (stereo not drawn) (Fmoc-[Cha]-Lys-{AMC}; configuration not given here), the “activity change, negative = inhibition” value was inactive: 38.8%.
CSc1ccc(/C=N/NC(=O)c2ccc(C)c(C)c2)cc1 was tested, and the Potency was active: 28.2 µM.
For Cc1c2oc3c(C)ccc(C(=O)N[C@@H]4C(=O)N[C@H](C(C)C)C(=O)N5CCC[C@H]5C(=O)N(C)CC(=O)N(C)[C@@H](C(C)C)C(=O)O[C@@H]4C)c3nc-2c(C(=O)N[C@@H]2C(=O)N[C@H](C(C)C)C(=O)N3CCC[C@H]3C(=O)N(C)CC(=O)N(C)[C@@H](C(C)C)C(=O)O[C@@H]2C)c(N)c1=O (I: T[dV]P[Sar][NMeV] / II: T[dV]P[Sar][NMeV]; ester I:1-I:C, II:1-II:C; linker I:N-II:N via Actinocin(9to1)), the “activity change, negative = inhibition” value was inactive: -24.3%.
For O=C1C(O)=C(O)C(=O)C(O)=C1O, the “activity change, negative = inhibition” value was inactive: -18.3% [at 21.4 µM].
COc1ccc2c(c1)C(=NNC(=O)c1ccccn1)c1cc(OC)ccc1-2 was tested, and the Potency was active: 10 µM.
In the case of CC[C@@H]1Cc2cc(O)ccc2C2=C1c1ccc(O)cc1C[C@H]2CC, the “activity change, negative = inhibition” value was inactive: -2.78%.
With Oc1cc(O)cc(/C=C/c2ccc(O)c(O)c2)c1 the “activity change, negative = inhibition” value was inactive: -12.7%.
For O=C(O)CSc1cc(C(=O)c2cc(F)ccc2O)cn2c(=O)c3c(-c4ccccc4)csc3nc12, the Potency was active: 25.1 µM.
In the case of Nc1nnc(-c2cccc(Cl)c2Cl)c(N)n1, the Potency was “inactive”.
For CC/C=C\C/C=C\C/C=C\CCCCCCCC(=O)O, the Potency was “inactive”.
For Oc1cc(O)c2c(c1)OC(c1ccc(O)c(O)c1)C(O)C2 (stereo not drawn), the “activity change, negative = inhibition” value was inactive: -16%.
In the case of CCC(C)n1c(NC(=O)c2ccccc2)c(C#N)c2nc3ccccc3nc21 (stereo not drawn), the Potency was active: 10 µM.
With COc1ccc(-c2[nH]n(-c3ccc([N+](=O)[O-])cc3)c(=O)c2C=NCc2ccncc2)cc1 the Potency was active: 7.94 µM.
For CN(C)[C@@H]1C(=O)C(C(=O)NCN2CCCC2)=C(O)[C@@]2(O)C(=O)C3=C(O)c4c(O)cccc4[C@@](C)(O)C3CC12 (stereo partly drawn), the Potency was active: 14.1 µM.
NC(C(=O)NC1C(=O)N2C(C(=O)O)=C(Cl)CSC12)c1ccccc1 (stereo not drawn) was tested, and the “activity change, negative = inhibition” value was inactive: 6.72%.
With Cc1ccc(CNc2ccc(O)cc2)cc1 the Potency was active: 25.1 µM.
For O=c1[nH]nc(CNc2ccc(O)cc2)c2ccccc12, the Potency was active: 35.5 µM.
CCCCC1C(=O)N(c2ccccc2)N(c2ccccc2)C1=O was tested, and the Potency was “inactive”.
In the case of CC1=CC(=O)c2ccccc2C1=O, the Potency was “inactive and active: 17.8 µM”.
O=C(O)Cc1ccc(O)c(O)c1 was tested, and the “activity change, negative = inhibition” value was inactive: -1.4%.
For CNC(=O)[C@H]1O[C@H](n2cnc3c(NCc4cccc(I)c4)ncnc32)[C@@H](O)[C@@H]1O, the “activity change, negative = inhibition” value was inactive: -0.208%.
In the case of CC(Cc1ccc(O)c(O)c1)C(C)Cc1ccc(O)c(O)c1 (stereo not drawn), the Potency was “inactive”.
COc1cccc(/C=N/NC(=O)c2cc3cc([N+](=O)[O-])ccc3s2)c1O was tested, and the Potency was active: 15.8 µM.
For c1ccc2c(c1)CCC[C@@H]2C1=NCCN1, the “activity change, negative = inhibition” value was inactive: 0.62%.
For CNCC[C@@H](Oc1ccccc1C)c1ccccc1, the “activity change, negative = inhibition” value was inactive: 7.73%.
With COc1ccccc1-n1cnc2c(c1=O)c1nc3ccccc3nc1n2-c1ccc(C)cc1 the Potency was active: 10 µM.
